Assay results from the supplement of paper PMC11741623.
Some of the results follow. Interaction screen of human proteins with wild-type SARS-CoV-2 proteins by split-DHFR complementation in yeast, 1 µg/mL methotrexate. Value = fitness of the pair (three or more lineages) minus that of the viral protein without a human partner, on a scale set by negative (0) and fused positive (1) controls, mean of up to three cultures; higher = more likely to interact. Active = false discovery rate below 0.05 (one-sided t-test) in at least one culture. Nearly all pairs are not hits, and differences among them are mostly noise (correlation between cultures about 0.3); most hits were seen in one culture only. Human sequences are the Swiss-Prot entries looked up by gene name; the clone may be another isoform. NSP2 values were corrected by the authors for a growth advantage. Listed are human proteins with a hit and a random twelfth of the others.

B1: C9orf123, Q96GE9 (protein)
chain: MGSRLSQPFESYITAPPGTAAAPAKPAPPATPGAPTSPAEHRLLKTCWSCRVLSGLGLMGAGGYVYWVARKPMKMGYPPSPWTITQMVIGLSENQGIATWGIVVMADPKGKAYRVV
B2: HMBOX1, Q6NT76 (protein)
chain: MLSSFPVVLLETMSHYTDEPRFTIEQIDLLQRLRRTGMTKHEILHALETLDRLDQEHSDKFGRRSSYGGSSYGNSTNNVPASSSTATASTQTQHSGMSPSPSNSYDTSPQPCTTNQNGRENNERLSTSNGKMSPTRYHANSMGQRSYSFEASEEDLDVDDKVEELMRRDSSVIKEEIKAFLANRRISQAVVAQVTGISQSRISHWLLQQGSDLSEQKKRAFYRWYQLEKTNPGATLSMRPAPIPIEDPEWRQTPPPVSATSGTFRLRRGSRFTWRKECLAVMESYFNENQYPDEAKREEIANACNAVIQKPGKKLSDLERVTSLKVYNWFANRRKEIKRRANIEAAILESHGIDVQSPGGHSNSDDVDGNDYSEQDDSTSHSDHQDPISLAVEMAAVNHTILALARQGANEIKTEALDDD
B3: CLVS2, Q5SYC1 (protein)
chain: MTHLQAGLSPETLEKARLELNENPDTLHQDIQEVRDMVITRPDIGFLRTDDAFILRFLRARKFHHFEAFRLLAQYFEYRQQNLDMFKSFKATDPGIKQALKDGFPGGLANLDHYGRKILVLFAANWDQSRYTLVDILRAILLSLEAMIEDPELQVNGFVLIIDWSNFTFKQASKLTPSMLRLAIEGLQDSFPARFGGIHFVNQPWYIHALYTVIRPFLKEKTRKRIFLHGNNLNSLHQLIHPEILPSEFGGMLPPYDMGTWARTLLDHEYDDDSEYNVDSYSMPVKEVEKELSPKSMKRSQSVVDPTVLKRMDKNEEENMQPLLSLD
B4: USP1, O94782 (protein)
chain: MPGVIPSESNGLSRGSPSKKNRLSLKFFQKKETKRALDFTDSQENEEKASEYRASEIDQVVPAAQSSPINCEKRENLLPFVGLNNLGNTCYLNSILQVLYFCPGFKSGVKHLFNIISRKKEALKDEANQKDKGNCKEDSLASYELICSLQSLIISVEQLQASFLLNPEKYTDELATQPRRLLNTLRELNPMYEGYLQHDAQEVLQCILGNIQETCQLLKKEEVKNVAELPTKVEEIPHPKEEMNGINSIEMDSMRHSEDFKEKLPKGNGKRKSDTEFGNMKKKVKLSKEHQSLEENQRQTRSKRKATSDTLESPPKIIPKYISENESPRPSQKKSRVKINWLKSATKQPSILSKFCSLGKITTNQGVKGQSKENECDPEEDLGKCESDNTTNGCGLESPGNTVTPVNVNEVKPINKGEEQIGFELVEKLFQGQLVLRTRCLECESLTERREDFQDISVPVQEDELSKVEESSEISPEPKTEMKTLRWAISQFASVERIVGEDKYFCENCHHYTEAERSLLFDKMPEVITIHLKCFAASGLEFDCYGGGLSKINTPLLTPLKLSLEEWSTKPTNDSYGLFAVVMHSGITISSGHYTASVKVTDLNSLELDKGNFVVDQMCEIGKPEPLNEEEARGVVENYNDEEVSIRVGGNTQPSKVLNKKNVEAIGLLGGQKSKADYELYNKASNPDKVASTAFAENRNSETSDTTGTHESDRNKESSDQTGINISGFENKISYVVQSLKEYEGKWLLFDDSEVKVTEEKDFLNSLSPSTSPTSTPYLLFYKKL

What follows are binders tested against SARS-CoV-2 NSP1 (assay: yeast fitness gain over the viral ORF with no human partner (scaled fitness); higher = more likely to interact).
Procedure: (§1)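 Split mouse DHFR complementation in pooled diploid yeast: human ORFeome clones carry one fragment and viral ORFs the other; barcoded lineages compete in 1 µg/mL methotrexate and fitness is read by barcode sequencing in up to three cultures.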

| Binder | yeast fitness gain |
| --- | --- |
| B1 | inactive: -0.0847 |
| B2 | inactive: -0.0623 |
| B3 | inactive: 0.0151 |
| B4 | inactive: 0.0739 |

These binders were tested against SARS-CoV-2 NSP10 in the same assay as above.
Procedure: as §1

| Binder | yeast fitness gain |
| --- | --- |
| B1 | inactive: -0.187 |
| B3 | inactive: 0.0385 |
| B4 | inactive: -0.108 |

Each binder was assayed against SARS-CoV-2 NSP12 in the same assay as above.
Procedure: as §1

| Binder | yeast fitness gain |
| --- | --- |
| B1 | inactive: -0.0854 |
| B2 | inactive: -0.0895 |
| B3 | inactive: 0.00104 |

What follows are binders tested against SARS-CoV-2 NSP13 in the same assay as above.
Procedure: as §1

| Binder | yeast fitness gain |
| --- | --- |
| B1 | inactive: 0.0228 |
| B2 | inactive: -0.33 |
| B3 | inactive: 0.0233 |
| B4 | inactive: -0.247 |

Each binder was assayed against SARS-CoV-2 NSP2 in the same assay as above.
Procedure: as §1

| Binder | yeast fitness gain |
| --- | --- |
| B1 | inactive: -0.15 |
| B3 | inactive: -0.0842 |

What follows are binders tested against SARS-CoV-2 NSP5 in the same assay as above.
Procedure: as §1

| Binder | yeast fitness gain |
| --- | --- |
| B1 | inactive: -0.00911 |
| B2 | inactive: 0.0269 |
| B3 | inactive: 0.00677 |

These binders were tested against SARS-CoV-2 NSP7 in the same assay as above.
Procedure: as §1

| Binder | yeast fitness gain |
| --- | --- |
| B1 | inactive: -0.261 |
| B3 | inactive: -0.0117 |

What follows are binders tested against SARS-CoV-2 ORF10 in the same assay as above.
Procedure: as §1

| Binder | yeast fitness gain |
| --- | --- |
| B1 | inactive: -0.0592 |
| B3 | inactive: 0.0702 |

Each binder was assayed against SARS-CoV-2 ORF3B in the same assay as above.
Procedure: as §1

| Binder | yeast fitness gain |
| --- | --- |
| B1 | inactive: -0.182 |
| B2 | inactive: -0.201 |
| B3 | inactive: 0.097 |

The binders below were run against SARS-CoV-2 ORF6 in the same assay as above.
Procedure: as §1

| Binder | yeast fitness gain |
| --- | --- |
| B1 | inactive: 0.0457 |
| B2 | inactive: 0.00748 |
| B3 | inactive: 0.0519 |

The binders below were run against SARS-CoV-2 ORF7B in the same assay as above.
Procedure: as §1

| Binder | yeast fitness gain |
| --- | --- |
| B1 | inactive: -0.0409 |
| B3 | inactive: 0.0615 |
| B4 | inactive: -0.426 |

These binders were tested against SARS-CoV-2 ORF8 in the same assay as above.
Procedure: as §1

| Binder | yeast fitness gain |
| --- | --- |
| B1 | inactive: -0.13 |
| B3 | inactive: 0.0234 |

These binders were tested against SARS-CoV-2 ORF9B in the same assay as above.
Procedure: as §1

| Binder | yeast fitness gain |
| --- | --- |
| B1 | inactive: 0.0211 |
| B2 | inactive: -0.0371 |
| B3 | inactive: 0.0214 |

What follows are binders tested against SARS-CoV-2 ORF9Bwu (the 73-codon ORF) in the same assay as above.
Procedure: as §1

| Binder | yeast fitness gain |
| --- | --- |
| B1 | inactive: -0.0327 |

These binders were tested against SARS-CoV-2 S in the same assay as above.
Procedure: as §1

| Binder | yeast fitness gain |
| --- | --- |
| B1 | inactive: -0.125 |
| B3 | inactive: -0.068 |

These binders were tested against SARS-CoV-2 NSP16 in the same assay as above.
Procedure: as §1

| Binder | yeast fitness gain |
| --- | --- |
| B3 | inactive: 0.0564 |

What follows are binders tested against SARS-CoV-2 NSP6 in the same assay as above.
Procedure: as §1

| Binder | yeast fitness gain |
| --- | --- |
| B3 | inactive: -0.0783 |

The binders below were run against SARS-CoV-2 NSP8 in the same assay as above.
Procedure: as §1

| Binder | yeast fitness gain |
| --- | --- |
| B3 | inactive: -0.109 |

The binders below were run against SARS-CoV-2 ORF7A in the same assay as above.
Procedure: as §1

| Binder | yeast fitness gain |
| --- | --- |
| B3 | inactive: 0.0754 |
